# Measurements published in PubChem BioAssay AID485294 (National Center for Advancing Translational Sciences (NCATS), 2010).
# Screen size: about 370,000 compounds; about 150 (0.041%) were called active. The inconclusive results got no clear call from the source; some entries with a clear call stand among them for comparison. Calls follow the shape of the dose curve; as a rule, active = well fitted inhibition curve with a large enough effect; inconclusive = small, poorly fitted or top-dose-only effect; inactive = flat fitted curve, though single readings scatter. Potencies of inconclusive entries are left out as doubtful fits.
# Target: Beta-lactamase (Escherichia coli (strain K12)) (UniProt P00811)
# Assay: qHTS Inhibitors of AmpC Beta-Lactamase (assay with detergent); also: nearly all actives have a fitted effect of over 25% in size
# Details: AmpC hydrolysis of nitrocefin, absorbance 480 nm, 0.01% Triton; series mostly up to 114 µM
# How it was run: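 AmpC (5.3 nM in the dispensed reagent) in 20 mM phosphate pH 7.0 with 0.01% (detergent screen) or 0.0001% Triton X-100 was preincubated with compounds for 15 min at room temperature. Nitrocefin was then added from an 800 uM solution, and hydrolysis was followed at 480 nm.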
# Potency is read from the fitted curve at half-maximal effect; tags tell the direction and shape of the fitted curve.
# Chain of UniProt P00811 (P00811 whole entry, looked up): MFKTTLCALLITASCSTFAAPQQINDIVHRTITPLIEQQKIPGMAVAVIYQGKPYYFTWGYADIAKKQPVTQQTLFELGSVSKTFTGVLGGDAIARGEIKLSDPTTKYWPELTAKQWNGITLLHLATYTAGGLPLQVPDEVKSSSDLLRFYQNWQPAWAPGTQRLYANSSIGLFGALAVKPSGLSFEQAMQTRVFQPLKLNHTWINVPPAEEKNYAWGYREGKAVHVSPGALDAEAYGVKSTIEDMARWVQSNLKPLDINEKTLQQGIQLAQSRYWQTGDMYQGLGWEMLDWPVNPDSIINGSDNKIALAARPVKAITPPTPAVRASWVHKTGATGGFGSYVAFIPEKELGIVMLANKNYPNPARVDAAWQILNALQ
row,Structure (SMILES),Potency
1,COCCNCC1C(Oc2ccc(Cl)cc2)C(=O)N1c1ccccc1C (centres undefined),"inconclusive [inhibitor, partial curve]"
2,COc1cccc(C(=O)NC(=S)Nc2ccccc2N2CCOCC2)c1,inactive
3,CC(=O)c1cccc(NC(=O)N2CCc3ccccc3C2)c1,"inconclusive [inhibitor, full curve]"
4,CC(C)C(=O)Nc1ccccc1C(=O)OCC(=O)c1ccc2c(c1)OCCO2,"inconclusive [inhibitor, full curve, poor fit]"
5,Cn1c(NCCO)nc2c(c1=O)C1(CCCCC1)Cc1ccccc1-2,"inconclusive [inhibitor, full curve, poor fit]"
6,COc1ccc(OC)c(/C=C2\Oc3cc(OCC(=O)N4CC(O)C[C@H]4C(=O)O)ccc3C2=O)c1 (some centres undefined),"inconclusive [inhibitor, full curve, poor fit]"
7,CC(=O)Nc1ccc2c(c1)C(=O)c1ccccc1C2=O,inactive
8,Cn1c(C(C(=O)NCC2CCCO2)N(CCc2ccccc2)C(=O)Cn2nnc3ccccc32)nc2ccccc21 (centres undefined),"inconclusive [inhibitor, partial curve, poor fit]"
9,COc1ccc(CNC(=O)C2=C(C)C(=O)OC23CCC(C)CC3)cc1 (centres undefined),"inconclusive [inhibitor, single point]"
10,Cc1ccc(S(=O)(=O)CC(=O)c2ccccc2[N+](=O)[O-])cc1,"inconclusive [inhibitor, partial curve]"
11,Cc1cc2occ(CC(=O)N(C)CC(=O)Nc3ccccc3Cl)c2cc1C,"inconclusive [inhibitor, full curve, poor fit]"
12,COC(=O)C1=C(C)N(CCCC(=O)O)C(=O)NC1c1ccc(-c2ccccc2)cc1 (centres undefined),"inconclusive [inhibitor, full curve, poor fit]"
13,CCCNC1=CC(=O)CC(C)(C)C1,"inconclusive [inhibitor, full curve, poor fit]"
14,COC(=O)C1CCCCN1C(=O)CCc1nnc(CCc2c[nH]c3ccccc23)o1 (centres undefined),inactive
15,COc1ccccc1N1CCN(/N=C/c2cc(OC)c(OC(C)=O)c(OC)c2)CC1,"inconclusive [inhibitor, full curve, poor fit]"
16,C=Cn1c(N2CCOCC2)nc2c1c(=O)[nH]c(=O)n2C,"inconclusive [inhibitor, partial curve]"
17,Oc1ccccc1N=Cc1sc2ccccc2c1Cl,"inconclusive [inhibitor, full curve]"
18,Cc1ccc2oc(=O)c3cnn(CC(=O)N4CCN(c5ccccn5)CC4)c3c2c1,"inconclusive [inhibitor, full curve]"
19,Cc1cccc(S(=O)(=O)Nc2nc3ccccc3nc2NCc2ccc3c(c2)OCO3)c1,"inconclusive [inhibitor, full curve, poor fit]"
20,CCOc1ccc(N(C(C)C(=O)N/N=C(\C)c2cccc(NC(=O)c3ccccc3)c2)S(C)(=O)=O)cc1 (centres undefined),"inconclusive [inhibitor, full curve, poor fit]"
21,COC(=O)c1ccc(C(=O)OC)c(NC(=O)COC(=O)CCOc2ccc(C)cc2)c1,"inconclusive [inhibitor, partial curve, poor fit]"
22,Cc1ccc(CSCC(=O)N2CCN(c3ccccc3F)CC2)cc1,inactive
23,C#CCOCCOCCOCCNc1nc(N2CCN(C(=O)[C@H]([C@@H](C)CC)n3cc(CCCCN)nn3)CC2)nc(N2CCN(C(=O)[C@H](CCCCN)n3cc(CCC(=O)O)nn3)CC2)n1,"inconclusive [inhibitor, single point]"

row,Structure (SMILES),Potency
1,Cc1ccc(S(=O)(=O)CC(=O)Nc2sc3c(c2C#N)CCCC3)cc1,inactive
2,Cc1ccccc1Cn1nnc(C(=O)Nc2ccc3c(c2)OCCO3)c1N,"inconclusive [inhibitor, full curve, poor fit]"
3,CCn1cc(CCC(=O)NCc2ccccc2OC)c2ccccc21,inactive
4,COc1cccc(-c2nnc(SCN3C(=O)c4ccccc4C3=O)n2C)c1,"inconclusive [inhibitor, partial curve]"
5,COc1ccccc1NC(=O)C(=O)NCC1CCCN1S(=O)(=O)c1cccs1 (centres undefined),inactive
6,c1coc(CNc2nc(-c3ccncc3)cs2)c1,inactive
7,O=C(Nc1nc2n(n1)C(c1ccccc1)CC(c1ccc(Cl)cc1)N2)c1ccco1 (centres undefined),"inconclusive [inhibitor, full curve, poor fit]"
8,O=C([O-])c1ccc(-[n+]2c(-c3ccccc3)cc(-c3ccccc3)cc2-c2ccccc2)cc1,"inconclusive [inhibitor, full curve, poor fit]"
9,CCOC(=O)/C(N=O)=C(\O)C1CCN(C(=O)OCC)CC1,inactive
10,Cc1c(O)c(S(=O)c2ccccc2)c(=O)n(-c2ccccc2)c1-c1ccccc1 (centres undefined),"inconclusive [inhibitor, partial curve]"
11,CCCN(CCC)CCCNC(=O)C1CCN(S(=O)(=O)CC)CC1,inactive
12,COc1ccc(-c2cc(C(=O)NNC(=S)NC(=O)c3c(-c4ccccc4)noc3C)[nH]n2)cc1,inactive
13,Cc1sc2nc(CSCC(=O)Nc3c(F)cccc3F)[nH]c(=O)c2c1C,"inconclusive [inhibitor, full curve]"
14,Brc1ccc2c(c1)OCCOCCOCCOCCOCCOCCO2,"inconclusive [inhibitor, partial curve]"
15,Cc1ccc(C)c(NC(=O)Cn2cc(C(=O)c3ccco3)c3ccccc32)c1,inactive
16,Cc1cccc(Nc2nc(N)nc(CSc3nccc(C)n3)n2)c1,"inconclusive [inhibitor, full curve]"
17,COCc1ccc(C(=O)N(C)CC2CCCN(CCc3ccc(OC)cc3)C2)o1 (centres undefined),"inconclusive [inhibitor, full curve, poor fit]"
18,CCCn1nnnc1NC(=O)c1cccs1,"inconclusive [inhibitor, full curve, poor fit]"
19,Cc1c(C)n(C)c2ccc(C(=O)NCCCN3CCCCC3C)cc12 (centres undefined),inactive
20,CCCC(C)NC(=O)COc1ccc(S(=O)(=O)c2ccc(OCC(=O)NC(C)CCC)cc2)cc1 (centres undefined),inactive
21,CCN(CC)C(=O)c1ccc(NS(=O)(=O)c2ccc(/C=C/C(=O)O)cc2)cc1,"inconclusive [inhibitor, single point]"
22,CC(C)n1nnnc1SCC(=O)NC1CCCC1,inactive
23,O=C(CSc1nnc(-c2ccc(F)cc2)o1)N1CCCCC1,"inconclusive [inhibitor, partial curve, poor fit]"

row,Structure (SMILES),Potency
1,Cc1cccc(OCCCC(=O)N2CCCc3ccccc32)c1C,inactive
2,COc1ccc(C2=C(C)C(=NCCCN3CCN(c4cc(C)ccc4C)CC3)NS2(=O)=O)cc1,inactive
3,Cc1ccc2c(CC(=O)N3CCN(S(=O)(=O)c4cccs4)CC3)coc2c1,inactive
4,CC(C)N(C(=O)CSc1nnc(NC(=O)c2ccco2)s1)C(C)C,inactive
5,CC1CCCC(C(=O)O)N1C(=O)CCSC(=O)c1ccccc1 (centres undefined),"inconclusive [inhibitor, single point]"
6,CN(C)S(=O)(=O)N1CCc2ccccc21,"inconclusive [inhibitor, full curve, poor fit]"
7,Oc1ccc(/C=N/Nc2ccc(C(F)(F)F)cn2)cc1,inactive
8,CCOC(=O)c1c(C)[nH]c(C)c1S(=O)(=O)N(C)CC(=O)Nc1cccc(F)c1,"inconclusive [inhibitor, full curve, poor fit]"
9,Cn1c(SCc2ccccc2Cl)nc2ccccc21,"inconclusive [inhibitor, full curve, poor fit]"
10,CCC1CCCCN1C(=O)c1cc2cc(Br)ccc2oc1=O (centres undefined),"inconclusive [inhibitor, full curve, poor fit]"
11,Nc1ccc(-c2ncc(-c3ccccc3)o2)cc1,inactive
12,CCN(CC)CCn1c(NC(=O)c2ccccc2O)nc2ccccc21,"inconclusive [inhibitor, full curve, poor fit]"
13,CCOC(=O)c1cc(C)n(CC2CCC(C(=O)Nc3ccccc3OC)CC2)c1C (centres undefined),inactive
14,C=CCc1c(C)nc(-c2ccccc2)nc1Nc1ccc(O)cc1,"inconclusive [inhibitor, full curve, poor fit]"
15,COc1ccccc1N1Cc2ccccc2C1,inactive
16,O=C(O)CN1C(=O)CCS(=O)c2ccccc21 (centres undefined),"inconclusive [inhibitor, full curve]"
17,Cn1c(=O)n(C)c2cc([N+](=O)[O-])c(N3CCN(C(=O)c4cccc(Cl)c4)CC3)cc21,inactive
18,Cc1cc2c(cc1C)NC(c1ccccn1)C1=C(CC(C)(C)CC1=O)N2 (centres undefined),"inconclusive [inhibitor, full curve, poor fit]"
19,COCCCN1C(=O)CS/C1=N\S(=O)(=O)c1ccccc1,"inconclusive [inhibitor, single point]"
20,COc1ccc(C2NC(=O)CS2)cc1OC (centres undefined),"inconclusive [inhibitor, full curve, poor fit]"
21,COc1ccc(C(C)=O)cc1CS(=O)(=O)CC(=O)O,"inconclusive [inhibitor, single point]"
22,O=[N+]([O-])c1nn(-c2ccc3c(c2)OCCO3)n(O)c1=Nc1ccccc1,inactive
23,Cc1cc2nc(-c3cccnc3SCC(=O)NCc3ccco3)[nH]c2cc1C,"inconclusive [inhibitor, partial curve]"
